Where a chain is given by its changes, count along the chain named. These are yes or no findings as the source states them, for the method shown. Some results given as binding are weak or reduced against the parent protein; the word gives no strength. Sequences can lack the tags named with a protein.
Legend:
Experiment in all cases: two-hybrid; MAR alleles as bait (Gal4 DNA-binding domain, pGBKT7), Nup60 or Nup60(188-388) as prey (Gal4 activation domain, pACT2-2); strain AH109 (pGAL1-HIS3); growth spotted on SC -Trp -Leu -His with 25 mM 3-AT (the legend of Fig. 2 says 5 mM), 3 days
[1] = target: T1, Nup2 meiotic-autonomous region (MAR, amino acids 51-175), wild type, fused to the Gal4 DNA-binding domain (S. cerevisiae) (UniProt P32499)
T1 sequence: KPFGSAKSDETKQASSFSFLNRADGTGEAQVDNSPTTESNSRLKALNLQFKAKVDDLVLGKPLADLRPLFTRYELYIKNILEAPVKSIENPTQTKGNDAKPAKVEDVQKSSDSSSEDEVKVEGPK

By UniProt entry, the sequences of proteins in these tests, tags left out. Where a name states a change or a piece, a line headed by the entry shows the natural chain unless it says otherwise.
UniProt P39705: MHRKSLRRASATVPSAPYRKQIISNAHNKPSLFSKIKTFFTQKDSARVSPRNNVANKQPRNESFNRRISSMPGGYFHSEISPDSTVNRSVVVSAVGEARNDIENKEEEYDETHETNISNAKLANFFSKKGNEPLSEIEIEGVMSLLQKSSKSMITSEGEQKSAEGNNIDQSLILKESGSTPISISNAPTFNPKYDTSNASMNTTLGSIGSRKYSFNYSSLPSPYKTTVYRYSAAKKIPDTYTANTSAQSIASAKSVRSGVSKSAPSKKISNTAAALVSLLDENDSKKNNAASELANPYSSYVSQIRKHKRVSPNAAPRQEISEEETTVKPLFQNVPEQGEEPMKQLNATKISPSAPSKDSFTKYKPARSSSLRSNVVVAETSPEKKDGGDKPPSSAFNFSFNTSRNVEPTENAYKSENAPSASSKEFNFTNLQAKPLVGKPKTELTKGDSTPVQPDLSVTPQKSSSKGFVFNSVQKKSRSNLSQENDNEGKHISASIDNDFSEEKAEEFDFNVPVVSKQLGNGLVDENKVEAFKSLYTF

[2] = target: T2, Nup2 MAR (51-175) K101E fused to the Gal4 DNA-binding domain (S. cerevisiae) (UniProt P32499)
T2 sequence: T1 sequence with K51E

[3] = target: T3, Nup2 MAR (51-175) F120Y fused to the Gal4 DNA-binding domain (S. cerevisiae) (UniProt P32499)
T3 sequence: T1 sequence with F70Y

[4] = target: T4, Nup2 mar(89-130) fused to the Gal4 DNA-binding domain (S. cerevisiae) (UniProt P32499)
T4 sequence: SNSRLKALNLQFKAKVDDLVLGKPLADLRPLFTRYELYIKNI

Row | binding [1] | binding [2] | binding [3] | binding [4] | Substance
1 | binds | binds | binds |  | Full-length Nup60 fused to the Gal4 activation domain (from UniProt P39705 1-539)
2 | binds | no binding | no binding | no binding | Nup60(188-388) fused to the Gal4 activation domain (from UniProt P39705 188-388) (domain or fragment)

— PMC9071577
